Source: the RNAGym collection of RNA variant scans (doi:10.7554/elife.90254)
Read counts are not given, so values of variants with three or more changes are uncertain.

B1: OR4K15 (parent)
chain: GUUAACGGUCAUAGGCCAUGGAAACUAGGAGCACCAUUUCGCUGCCAGUGAAGAAAUGAACAAAGAAAAUCUGGGCCAGGCAGGCAUCAAAAGAAAUAGUCUUGCGCUCAACCAGAAAGUCUGUAAUCAUUUUAAGGGUA

Variants of: B1
Assay: self-cleavage, relative activity (ratio to wild type); higher = more cleavage; in vitro, sequencing; the parent is a self-cleaving ribozyme

| Variant | self-cleavage |
| --- | --- |
| U9C A36G U38C U49C C71U U130G | 0.24 |
| U9C U39C A47G A117U | 1.19 |
| U9C A60G C105U U132A | 0.35 |
| U9C A92G U102C | 2.84 |
| C10U U39C A98G A135G | 0.77 |
| U9C G14A A47U G79U A89G | 0.03 |
| A11G A13U A24C A55G A56U A89U A126G | 0.47 |
| U9A A60G A95U | 1.31 |
| U9C A22U G31C A51G U122A | 2.17 |
| C10U A33U A98G | 0.23 |
| C10A A59G A91G U102C U131C | 1.33 |
| U9C A63G U100A | 1.24 |
| U9C A54G A55U A78G | 0.28 |
| A11C U26A A116U | 0.15 |
| U9C U37C U57G | 1.97 |
| U9C A18G A23G | 1.65 |
| U9C U49C A59G U130C | 0.77 |
| U9C C88U A90G A92G U103C C105U | 0.03 |
| U9C A90G U120A | 0.84 |
| U9C A13G A22G U102A | 0.47 |
| A11C A78U U103C U131C | 0.06 |
| U9C A67G A68G A116G U120C | 0.8 |
| U9C A55G A59G G115U | 0.19 |
| U9C A23G A52G A90G U103A | 0.23 |

| Variant | self-cleavage |
| --- | --- |
| U9G U26C A96G A98U | 1.83 |
| U9C A68G A114G | 1.68 |
| U9C A24G A95G U108C | 0.02 |
| U9A A30G A47C A66G A117G | 1.24 |
| U9C A60G A117U | 0.91 |
| U9C A36U A96G U130C | 0.51 |
| U9A A63G U87C A140U | 0.92 |
| U9G A52G U72A | 0.3 |
| U9C A27G G44U A55G | 0.34 |
| U9C A36G A66U A67G U70C A110G U124C | 0.06 |
| U9C U57A A89G | 1.3 |
| C10U A18G C46A | 0.52 |
| U9C A60G U70C | 1.32 |
| A11C A36G A67G A92G A118G | 1.05 |
| A11C U70G A90U U127C | 1.4 |
| U9A U70A U72G | 0.42 |
| U9A A60G A82C U133C | 0.18 |
| U9G U39C A69G | 1.06 |
| U9A U12A U39A A62G | 0.91 |
| A11C A60C U108C A118U | 0.01 |
| U9C A69U C85U A89U | 2.01 |
| U9A C109A U122C | 0.27 |
| U9C U57C U122C | 1.2 |
| U9C G31A A69U | 1.07 |

| Variant | self-cleavage |
| --- | --- |
| U9C U70A U122C | 0.54 |
| U9C U38C U70C U72A | 0.64 |
| C10U A63G A90G U100C | 0.73 |
| A11G A18U A33G G53U G136A | 0.42 |
| C10U A18U U122G | 2.56 |
| U9A A63C A68G A91G U97C U122A | 0.08 |
| U9C A56G A68G A114G U122C U127C | 0.09 |
| A11G A13G U43G A47G U72A | 0.51 |
| U9C G79A U127A U131C | 0.34 |
| U9C A54U U131C | 0.81 |
| U9C U12C A91U | 1.54 |
| U9C A11U U57C A118G | 1.03 |
| U9C A114U A116G U130C | 0.01 |
| U9C U37A A68G A78G | 0.53 |
| C10U U70C U72C | 0.41 |
| U9C A66G A118U | 1.37 |
| U9C A13U A23G U122C | 2.01 |
| U9C U12C A36G A68G A86G A94G A117G | 0.55 |
| U9C A89G U97G | 0.93 |
| U9C A52G A67G A68G U130A | 0.97 |
| A11C A55G A64G A69G | 0.44 |
| U9C A24G A96G C112U A126G | 0.03 |
| U9C A64G U70G C85G | 0.5 |
| U9A A24G C40U G58A A67U | 1.38 |

| Variant | self-cleavage |
| --- | --- |
| U9C A22U A23G A94G A126U U131C | 0.84 |
| U9C A51G A60G C109U A116G | 0.5 |
| U9A A66G U97C U127C | 0.9 |
| U9C A54G U72C A78U A86G | 0.08 |
| U9C C85U A129G | 1 |
| U9C A51U A52G A110G | 0.12 |
| U9A A23G U43A U103C G106U | 0.06 |
| U9C U19C U43A A67G U100C | 2.07 |
| U9C A27G A64G | 1.25 |
| A11C A69G A91G A111G | 0.02 |
| U9C A24G A55G A66G U122C | 1.37 |
| U9C A33G U43C A95G | 0.63 |
| U9C U57C A78U A86G | 0.18 |
| U9C A60G A62U U108A U132G | 0.05 |
| U9C A30G A92G U100C | 1.53 |
| C10U A23U U37C U43C U49A A54U A60G A86U | 0.57 |
| A11C U12A G84A U127C G138U | 1.12 |
| U9A A33G A110C | 0.11 |
| C10A A13U A60G | 0.64 |
| U9C A51C A64G A96G U122C | 2.02 |
| U9C A66G A69G U103C A116G | 0.57 |
| U9C A18G A116G | 0.78 |
| U9C A24G G123A | 1.28 |
| A11G A18G A23U | 0.18 |

| Variant | self-cleavage |
| --- | --- |
| U9C G28A G53A U130C | 0.61 |
| U9C U49A A52C U103C U132C | 0.29 |
| U9C U12A U38C A89G U122A U127A | 1.45 |
| U9C G15A A27G A78G C109A U124A | 0 |
| U9C A54G A62U | 0.55 |
| U9C A30G U122C | 1.31 |
| A11G A13G A66G A67U | 0.96 |
| U9C U37C U57C G74U A98G U108C | 0.01 |
| U9C A33G A60U | 1.29 |
| U9C U43C A90G C109U | 0.54 |
| U9C U19C A23G A69G A91G | 0.96 |
| C10A U70C U139C | 0.8 |
| U9C A116G A129G | 0.59 |
| U9C A59U A91G | 1.08 |
| A11G A22G U37C U124A | 0.4 |
| U9C A23G A51G U70C | 1.55 |
| U9C A18G U37C A62U U97A A129G | 1.69 |
| U9C A51G U72C G137A | 0.12 |
| A11G A18G A22C A23U A90G U102C | 1.18 |
| U9C A27U U57A | 1.67 |
| C10G U39C A51C U100C | 0.36 |
| U9C A59G A67G A95G | 2.55 |
| U9C U19C A82G | 0.62 |
| U9C A54G A60G U70C A89U C105U | 0.17 |

| Variant | self-cleavage |
| --- | --- |
| U9A C40A U120C | 0.27 |
| U9G U102C U108C A125G | 0 |
| U9A C40A A56G A62G | 1.04 |
| C10A A23G U100C U132C G137A | 1.66 |
| U9C A11U U38C | 1.37 |
| U9C U39A A62G U139C | 1.13 |
| U9A U49C A63G G83A U130C | 1.75 |
| U9C A54U A86G U103C | 0.69 |
| U9C A68G A116C | 0.08 |
| U9C U12C A59U A92G A94G | 1.47 |
| U9C U43C A47C | 0.93 |
| U9C A11G A92G A95G C107U A126G U132C | 0 |
| U9C U102A A111G | 0.02 |
| U9C A23G A91G | 1.18 |
| U9C G75A U127C U130A | 0.13 |
| A11C A22G A78G U131C | 0.22 |
| U9A U108C U120C | 0 |
| U9C G73U A90G | 0.2 |
| U9C A59G U139C | 1.51 |
| U9C U12C U49C A118G U130C A135U | 0.74 |
| U9C C32A C85G A96G A117G U132C | 0.91 |
| U9C C40A A63U G83A A135G | 2 |
| U9C A96G A118U U130C | 0.37 |
| U9C A51G A54G A60U U108C A111G | 0.04 |

| Variant | self-cleavage |
| --- | --- |
| U9A A33U U100C U103C | 1.39 |
| U9C A69G A92G U100A U120C | 0.33 |
| U9C A52G A111G A114G | 0 |
| A11G A13G A54G A55G A62G | 0.49 |
| U9C A67G U100C A118G | 1.62 |
| U9C A52U A59G | 1.87 |
| U9C U39G U70A | 0.2 |
| U9C A55U A118G | 0.7 |
| U9A U19A U70C U97A A114U | 0.05 |
| U9A A59G A91G | 0.68 |
| C10U A111G U131C | 0.08 |
| U9A A47U A51G A67U U97C | 0.29 |
| U9C A30U U49C | 1.25 |
| U9C A86U A90G A118G | 0.99 |
| U9C C17U A33G U43C | 0.36 |
| U9C A23U C61U A64U A114G | 0.41 |
| U9C A60U A94G A96U U108C U124G | 0.01 |
| U9C U100C A129G U131C | 2.1 |
| U9C A91G U139C | 1.5 |
| U9C U49C A55G U100C A129G | 2.25 |
| U9C A13U A23G A67G U100C | 1.16 |
| U9C U100C U122A | 2.23 |
| C10U A23G A24G A114U A116G A117G U122A | 0 |
